Assay results: the supplement of paper PMC11417369
This is one part of the list.

What follows are sequences tested on PfAP2-HC AP2 domain (GST-tagged) (assay: gcPBM binding intensity (ln(normalized median fluorescence intensity)); higher = stronger DNA binding).
Method in brief: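 DNA-binding domains from P. falciparum, fused to GST and produced in E. coli, were put on an Agilent 4 × 180k double-stranded probe array for 1 h in 1× PBS holding 1% milk, 0.2 mg/ml BSA, 0.5% salmon testes DNA and 0.03% Triton X-100. Probes were primer-extended, 36 bp long and drawn from intergenic genomic regions, with negative controls included. After Alexa488 anti-GST antibody detection and a 488 nm scan, binding intensity was set as the highest Masliner-normalised natural-log median intensity across replicate spots of either probe orientation.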

**Q.** With “GCAAATATGTTGATATGTACATATATATATATATAT [XGTACX_site445]” as the sequence, how does the “gcPBM binding intensity (ln)” value read?
**A.** The value was 9.73.

**Q.** “ATTATTTTAATAAAACGTACAAAATATAAATCAAAA [XGTACX_site3770]” was tested. Which “gcPBM binding intensity (ln)” value did it give?
**A.** Its value is 9.65.

**Q.** Which “gcPBM binding intensity (ln)” value does the source give for “AAAAAATATACATATACACACATATGTATATATAAT [CACACA_site8676]” here?
**A.** Its value is 9.86.

**Q.** “AGTTTATAGTGATATTGTACATATATATATATATAT [XGTACX_site572]” was tested. Which “gcPBM binding intensity (ln)” value did it give?
**A.** The value was 9.84.

**Q.** Which “gcPBM binding intensity (ln)” value does the source give for “AAAATTTATATAAGCACACAAATATATATTTATATC [CACACA_site3291]” here?
**A.** Its value is 9.69.

**Q.** For “TTATTTTTGTTTTGAAGTACAAAAAAATATATTCTT [XGTACX_site6416]”, which “gcPBM binding intensity (ln)” value is on record?
**A.** Its value is 9.26.

**Q.** How did the “gcPBM binding intensity (ln)” value turn out when “TATTTATACTCAACTTTCTGTTATTCCAACTTTTTT [XGTACX_negctrl_site410]” was run?
**A.** Its value is 9.73.

**Q.** “TTATATATTAATAGTAGTACTATATTGAATCACCCC [XGTACX_site2868]” was tested. Which “gcPBM binding intensity (ln)” value did it give?
**A.** Its value is 9.7.

**Q.** How did the “gcPBM binding intensity (ln)” value turn out when “TTTTAAATCTTATATTCCCCACATAAATAGCTCTCT [GTGCAC_negctrl_site665]” was run?
**A.** The value was 9.39.

**Q.** How did the “gcPBM binding intensity (ln)” value turn out when “ACAACAAAAATAAGCACACACAAATATACATACATA [CACACA_site7664]” was run?
**A.** The value was 11.3.

**Q.** “ACATAAGAACATATTTGTACGTATATAAATTAAATA [XGTACX_site6127]” was tested. Which “gcPBM binding intensity (ln)” value did it give?
**A.** The value was 9.71.

**Q.** Which “gcPBM binding intensity (ln)” value does the source give for “AATGAAAAAAAAAAAAAAAAGAAGAAGCAAATGGTA [TGCATGCA_negctrl_site335]” here?
**A.** Its value is 9.54.

**Q.** Which “gcPBM binding intensity (ln)” value does the source give for “ATAAATAATTATATATGTACACATTATGAATGGATA [XGTACX_site8336]” here?
**A.** Its value is 9.8.

**Q.** With “AGATTATTTGGACATGCATGTAAAAAAATACGTATA [TGCATGCA_site972]” as the sequence, how does the “gcPBM binding intensity (ln)” value read?
**A.** Its value is 9.86.

**Q.** Which “gcPBM binding intensity (ln)” value does the source give for “TATGTGTATTTATTTGCATGTTGGTTGTATTTTTTC [TGCATGCA_site479]” here?
**A.** The value was 10.4.

**Q.** Which “gcPBM binding intensity (ln)” value does the source give for “TCTTCATATGTTTACTGTACGAGAAAAAAAAAAAAA [XGTACX_site6418]” here?
**A.** Its value is 9.31.

**Q.** With “TAATAAAATAAAAATTGTACATTTTATATTTATCAA [XGTACX_site5134]” as the sequence, how does the “gcPBM binding intensity (ln)” value read?
**A.** The value was 9.4.

**Q.** For “ATTTCCCACTTGTGTGTGCGCATGTGTATATATTTA [GTGCAC_site9949]”, which “gcPBM binding intensity (ln)” value is on record?
**A.** Its value is 10.4.

**Q.** “AAAAGTGATAATAAGAGTACATAAAAAATTTATTAT [XGTACX_site8037]” was tested. Which “gcPBM binding intensity (ln)” value did it give?
**A.** Its value is 9.71.

**Q.** “TACATATATATAATATGTACTTATAATATGTATTTA [XGTACX_site2162]” was tested. Which “gcPBM binding intensity (ln)” value did it give?
**A.** The value was 9.51.

**Q.** “TTATTTGTTTGTTGGATGCTTTTTTTTTTTTTTTTT [CACACA_negctrl_site1697]” was tested. Which “gcPBM binding intensity (ln)” value did it give?
**A.** The value was 9.83.

**Q.** Which “gcPBM binding intensity (ln)” value does the source give for “TATTCTATACTATATTGTACTATAATATAATATACT [XGTACX_site797]” here?
**A.** Its value is 9.8.

**Q.** “AAATAATTTATAAATAAATACATTGTTACTTTTTCT [GTGCAC_negctrl_site639]” was tested. Which “gcPBM binding intensity (ln)” value did it give?
**A.** Its value is 9.51.

**Q.** “CTACACAAGCATTAAACACACAAAAGGGATACTTTG [CACACA_site1083]” was tested. Which “gcPBM binding intensity (ln)” value did it give?
**A.** Its value is 10.2.

**Q.** For “ATTCAAAAAAATAAAATAAACATAAATAAACATAAA [TGCATGCA_negctrl_site390]”, which “gcPBM binding intensity (ln)” value is on record?
**A.** The value was 9.63.

**Q.** “GGTATTACTTTTAGCTGTACTTATTTAAAAGTCAAA [XGTACX_site530]” was tested. Which “gcPBM binding intensity (ln)” value did it give?
**A.** The value was 9.56.

**Q.** With “ATTTTTTTTTTTTTATGTACATATTAAAAAAAATAT [XGTACX_site1829]” as the sequence, how does the “gcPBM binding intensity (ln)” value read?
**A.** The value was 9.47.

**Q.** “ATTTTTACTTTTTATGCATGCTATATTTTCAACCAT [TGCATGCA_site871]” was tested. Which “gcPBM binding intensity (ln)” value did it give?
**A.** Its value is 9.86.

**Q.** “ATTAAGGAAAAATTATGTACACAAAAACATATAACA [XGTACX_site2901]” was tested. Which “gcPBM binding intensity (ln)” value did it give?
**A.** The value was 9.85.

**Q.** How did the “gcPBM binding intensity (ln)” value turn out when “TATACATGTTCAATTTGTACATATATAAATATATAT [XGTACX_site3554]” was run?
**A.** Its value is 9.58.

**Q.** For “AAGAACAGATAAAATCGTACGTGAAACATGAACTTG [XGTACX_site7793]”, which “gcPBM binding intensity (ln)” value is on record?
**A.** The value was 9.74.

**Q.** Which “gcPBM binding intensity (ln)” value does the source give for “TCTGAAATTTTAGGGGTGCCTGGGACTAAAGAAACG [GTGCAC_site9785]” here?
**A.** The value was 9.39.

**Q.** Which “gcPBM binding intensity (ln)” value does the source give for “TAGAAACCATAAAAATGTACTTAAAAATAGACAATT [XGTACX_site5007]” here?
**A.** The value was 9.57.

**Q.** “AGACTTTTTATGAGCACACACATATATTATGGAGTA [CACACA_site1040]” was tested. Which “gcPBM binding intensity (ln)” value did it give?
**A.** The value was 9.81.

**Q.** “TTTAATTCCCATATATGTACACAATTTCTTCTATAA [XGTACX_site1465]” was tested. Which “gcPBM binding intensity (ln)” value did it give?
**A.** Its value is 9.66.

**Q.** With “ATAAATTCATTATATTGTACAAACAAATGAAAAAAA [XGTACX_site8304]” as the sequence, how does the “gcPBM binding intensity (ln)” value read?
**A.** Its value is 9.65.

**Q.** “ATACATAAATATTATTGTACATATATAATATTAATA [XGTACX_site3514]” was tested. Which “gcPBM binding intensity (ln)” value did it give?
**A.** The value was 9.61.

**Q.** “GGAAAAAGAAATTAATGTACATGTGGATGTATGAGG [XGTACX_site5468]” was tested. Which “gcPBM binding intensity (ln)” value did it give?
**A.** Its value is 9.75.

**Q.** With “AAAATATTTAAGCATTGTACATATTTTTACAAATAC [XGTACX_site5349]” as the sequence, how does the “gcPBM binding intensity (ln)” value read?
**A.** Its value is 9.56.

**Q.** Which “gcPBM binding intensity (ln)” value does the source give for “AAAATTCATCCAACAAGTACATAAATATAATATTAT [XGTACX_site4596]” here?
**A.** Its value is 9.67.

**Q.** “TCAAGAGTTATATAAACACACATACATACAGACATA [CACACA_site6998]” was tested. Which “gcPBM binding intensity (ln)” value did it give?
**A.** Its value is 10.1.

**Q.** How did the “gcPBM binding intensity (ln)” value turn out when “TAAGAAATTGAGCGCACACATACATCTGTGGGATGG [CACACA_site1548]” was run?
**A.** The value was 10.3.

**Q.** How did the “gcPBM binding intensity (ln)” value turn out when “ATTGTGGATATTCTTACACACAAATTTATTTATAAA [CACACA_site7267]” was run?
**A.** Its value is 9.57.

**Q.** Which “gcPBM binding intensity (ln)” value does the source give for ATGTAAATATTTTGTATGCACTTTGATGCATCTTTT here?
**A.** Its value is 9.71.
